Data from ChEMBL document CHEMBL4888484, “Replenishing the malaria drug discovery pipeline: Screening and hit evaluation of the MMV Hit Generation Library 1 (HGL1) against asexual blood stage Plasmodium falciparum ,using a nano luciferase reporter read-out” (2022).
Among all 150,000 compounds or so, about 540 (0.36%) showed an effect of 50% or more. The list shows a part of the results.

System: Plasmodium falciparum
Assay: Primary screen in NF54 nanoGlo assay, in single point, at 2uM, 72h; a lower Z score goes with more inhibition
Format: functional, Erythrocyte
Settings: timepoint 72 hour

**Q.** With O=C1CN(S(=O)(=O)CCc2ccccc2)CCN1c1ccccn1 as the compound, how does the “% Inhibition” value read?
**A.** Its value is -4%.

**Q.** And the Z score?
**A.** Its Z score is 0.57.

**Q.** With CCC(=O)Nc1ccc2c(c1)C(N1CCC(C)CC1)=Nc1ccccc1O2 as the compound, how does the “% Inhibition” value read?
**A.** Its value is -2%.

**Q.** And the Z score?
**A.** The Z score was 0.38.

**Q.** How did the “% Inhibition” value turn out when Cc1ccc(-c2cc(C(F)(F)F)n3nc(COc4ccccc4)c(-c4ccccc4)c3n2)cc1 was run?
**A.** The value was -17%.

**Q.** And the Z score?
**A.** Its Z score is 2.64.

**Q.** How did the “% Inhibition” value turn out when COCC(=O)N1CCc2nc(NC(=O)C3CCC3)sc2C1 was run?
**A.** Its value is -1%.

**Q.** What about the Z score of the same compound?
**A.** Its Z score is 0.13.

**Q.** CCCCCOCC(=O)N1CC[C@H](CC(N)=O)C1 was tested. Which “% Inhibition” value did it give?
**A.** The value was -4%.

**Q.** And the Z score?
**A.** Its Z score is 0.5.

**Q.** With CCCN(CC#N)C(=O)c1cc(S(=O)(=O)C(C)C)ccc1F as the compound, how does the “% Inhibition” value read?
**A.** Its value is -11%.

**Q.** What about the Z score of the same compound?
**A.** The Z score was 1.2.

**Q.** What does the source list for Cc1ccc2cc(-c3noc(CCC(=O)N4CCC(C)CC4)n3)c(O)nc2c1?
**A.** % Inhibition: -5%; Z score: 0.87

**Q.** COc1ccc(S(=O)(=O)N2CCOCC2)cc1NC(=O)[C@H]1CCOC1 was tested. Which “% Inhibition” value did it give?
**A.** The value was -1%.

**Q.** And the Z score?
**A.** Its Z score is 0.13.

**Q.** What does the source list for O=C(O)C[C@@H]1CCN(C(=O)c2ccc(F)cc2)C[C@@H]1CC1=NCCc2ccccc21?
**A.** % Inhibition: -3%; Z score: 0.45

**Q.** O=C(Cc1ccc(O)cc1Cl)N1CCOCC12CCC2 was tested. Which “% Inhibition” value did it give?
**A.** Its value is -9%.

**Q.** And the Z score?
**A.** Its Z score is 1.19.

**Q.** What does the source list for Cc1n[nH]c(C2CN(C(C)C(=O)N3CCc4ccccc43)CCO2)n1 (centres undefined)?
**A.** % Inhibition: -3%; Z score: 0.44

**Q.** What does the source list for Cc1nc(-c2cn(C(C)C)c3ncccc23)sc1C(=O)Nc1ccc2c(c1)OCCO2?
**A.** % Inhibition: 8%; Z score: -1.4

**Q.** COc1ccc(CCn2nnnc2C2(N3CCOCC3)CCCC2)cc1OC was tested. Which “% Inhibition” value did it give?
**A.** Its value is 1%.

**Q.** And the Z score?
**A.** The Z score was -0.22.

**Q.** Cc1ccc(S(=O)(=O)N2CC[C@H](Oc3ccncn3)C2)s1 was tested. Which “% Inhibition” value did it give?
**A.** Its value is -15%.

**Q.** What about the Z score of the same compound?
**A.** The Z score was 2.29.

**Q.** With CC(=O)N1CCC[C@@](NCCN2CCOCC2)(c2nnnn2CCC(C)C)C1 as the compound, how does the “% Inhibition” value read?
**A.** Its value is -10%.

**Q.** What about the Z score of the same compound?
**A.** The Z score was 1.37.

**Q.** With Cc1oc(-c2cc(F)cc(F)c2)nc1CN1CC[C@H](O)[C@@H](O)C1 as the compound, how does the “% Inhibition” value read?
**A.** The value was -5%.

**Q.** What about the Z score of the same compound?
**A.** Its Z score is 0.44.

**Q.** With CCc1ccsc1CNC(=NC)NCc1ncnn1C as the compound, how does the “% Inhibition” value read?
**A.** Its value is -6%.

**Q.** What about the Z score of the same compound?
**A.** The Z score was 0.59.

**Q.** For CC(C)(C)OC(=O)N1CCC(CCn2nc(C#N)ccc2=O)CC1, which “% Inhibition” value is on record?
**A.** The value was -3%.

**Q.** And the Z score?
**A.** Its Z score is 0.42.

**Q.** Which “% Inhibition” value does the source give for Cc1nsc(C(=O)NCc2cccnc2)n1 here?
**A.** The value was -9%.

**Q.** What about the Z score of the same compound?
**A.** The Z score was 1.48.

**Q.** CN(C)CCc1nnc(NC(=O)c2cc(C(F)F)[nH]n2)s1 was tested. Which “% Inhibition” value did it give?
**A.** The value was 4%.

**Q.** And the Z score?
**A.** Its Z score is -0.65.

**Q.** COc1ccc(-n2ccn3cc(-c4ccc(C)cc4C)nc3c2=O)cc1Cl was tested. Which “% Inhibition” value did it give?
**A.** Its value is -3%.

**Q.** And the Z score?
**A.** The Z score was 0.4.

**Q.** How did the “% Inhibition” value turn out when O=C(NCc1c(O)ccc2c1CCCC2)c1ncoc1[C@@H]1CCCO1 was run?
**A.** Its value is -19%.

**Q.** And the Z score?
**A.** The Z score was 3.27.

**Q.** Which results are given for COC(=O)c1nc(-c2ccc(C)cc2)oc1S(=O)(=O)c1cccc(OC)c1?
**A.** % Inhibition: 2%; Z score: -0.22

**Q.** For Cc1nnsc1C(=O)N1CC[C@H](N(C(=O)c2snnc2C)C2CC2)C1, which “% Inhibition” value is on record?
**A.** The value was 3%.

**Q.** And the Z score?
**A.** The Z score was -0.6.

**Q.** Which results are given for Cn1ncc2c(=O)n(Cc3nnc(C(F)(F)F)s3)cnc21?
**A.** % Inhibition: -4%; Z score: 0.72

**Q.** How did the “% Inhibition” value turn out when CC1OCCC12CN(CCC(=O)Nc1ccccc1Cl)CCO2 (centres undefined) was run?
**A.** The value was 1%.

**Q.** And the Z score?
**A.** The Z score was -0.12.

**Q.** For Cc1nn(C)c(C)c1CC(C)C(=O)N1CC2OCCN(C)C2C1 (centres undefined), which “% Inhibition” value is on record?
**A.** Its value is -14%.

**Q.** What about the Z score of the same compound?
**A.** Its Z score is 1.6.

**Q.** For O=C(c1cc2cc(F)ccc2s1)N1CCC[C@H]1c1nc2ccccc2s1, which “% Inhibition” value is on record?
**A.** Its value is -12%.

**Q.** What about the Z score of the same compound?
**A.** The Z score was 1.56.

**Q.** What does the source list for Cc1nc(NCC2(Cn3ccnc3C)CC2)c2c(C)nn(C)c2n1?
**A.** % Inhibition: -13%; Z score: 2.5

**Q.** What does the source list for COCCC1(CNC(=O)NCc2ccsc2)CCC1?
**A.** % Inhibition: 2%; Z score: -0.24

**Q.** For O=C(CN1CCC[C@H]1c1ccccc1)Nc1nnc(-c2ccccc2)o1, which “% Inhibition” value is on record?
**A.** The value was -3%.

**Q.** What about the Z score of the same compound?
**A.** The Z score was 0.39.

**Q.** How did the “% Inhibition” value turn out when COc1ccc([C@H](C)N(C)C(=O)c2ccn(C)c2C)cc1 was run?
**A.** Its value is -5%.

**Q.** And the Z score?
**A.** The Z score was 0.96.

**Q.** Which results are given for Cc1ccccc1S(=O)(=O)N(C)CCc1noc(C2CCCCC2)n1?
**A.** % Inhibition: -9%; Z score: 0.88

**Q.** For CC(C)N(C)C(=O)NC1CC2CCCCN2C1=O (centres undefined), which “% Inhibition” value is on record?
**A.** The value was -1%.

**Q.** What about the Z score of the same compound?
**A.** Its Z score is 0.1.

**Q.** Which “% Inhibition” value does the source give for CCN(CC)CC1(NC(=O)c2cccc(Cl)c2Cl)CC1 here?
**A.** Its value is 1%.

**Q.** And the Z score?
**A.** The Z score was -0.1.

**Q.** How did the “% Inhibition” value turn out when O=C(C[C@@H]1NC(=O)N(CCc2c[nH]c3ccccc23)C1=O)N1CCCC1 was run?
**A.** Its value is -12%.

**Q.** And the Z score?
**A.** The Z score was 1.72.

**Q.** With C[C@H](NC(=O)NCCCS(C)(=O)=O)C1CCCCC1 as the compound, how does the “% Inhibition” value read?
**A.** The value was -5%.

**Q.** What about the Z score of the same compound?
**A.** Its Z score is 0.64.

**Q.** Which results are given for CCc1noc2nc(CCC(=O)N[C@@H](C)Cc3ccco3)nc(N3CCCCC3)c12?
**A.** % Inhibition: -9%; Z score: 1.4

**Q.** With C[C@H]1CCCN(C(=O)c2ccc3[nH]ncc3n2)C1 as the compound, how does the “% Inhibition” value read?
**A.** Its value is 1%.

**Q.** And the Z score?
**A.** Its Z score is -0.08.

**Q.** Which results are given for CC(=O)N1CCC(N2C[C@@H]3NC(=O)CN(C4CC4)Cc4cccc(c4)Oc4cccc(c4)CO[C@H]3C2)CC1?
**A.** % Inhibition: 13%; Z score: -1.86

**Q.** For CN(CC1(CO)CCCC1)c1ncc(C#N)c(N)n1, which “% Inhibition” value is on record?
**A.** Its value is -8%.

**Q.** And the Z score?
**A.** Its Z score is 1.59.

**Q.** For Cc1cc(C)c2[nH]c(C(=O)N(C[C@H]3CCC(=O)N3)C(C)C)c(C)c2c1, which “% Inhibition” value is on record?
**A.** The value was -11%.

**Q.** And the Z score?
**A.** The Z score was 1.01.
